In ChEMBL document CHEMBL4888484, “Replenishing the malaria drug discovery pipeline: Screening and hit evaluation of the MMV Hit Generation Library 1 (HGL1) against asexual blood stage Plasmodium falciparum ,using a nano luciferase reporter read-out” (2022):
Screen size: about 4,800 compounds; about 410 (8.5%) showed an effect of 50% or more. The list shows a part of the results.

Tested on: Plasmodium falciparum
Test: Confirmatory screen in NF54 pLDH assay, in single point, at 2uM, 72h
Type: functional, Erythrocyte
Conditions: timepoint 72 hour

Compound | % Inhibition [%]
Cc1cccc(NS(=O)(=O)c2cc(C(=O)NCc3ccc4c(c3)OCO4)ccc2Cl)c1C | 7
Cc1cc2c(cc1C)O[C@H](C(=O)Nc1nnn[nH]1)C2 | -8
Cc1nn(-c2nc3ccccc3[nH]2)c2c1[C@@H](c1cccnc1)CC(=O)N2 | 79
Cc1nn(-c2ncccn2)c2c1[C@@H](c1ccccc1)CC(=O)N2 | -15
O=C(Nc1nc(CCc2c[nH]c3ccccc23)n[nH]1)c1cccnc1 | 12
Cc1cccc(C2(c3cccc(C)c3)c3ccccc3/C(=N\c3ccccc3)N2c2ccccc2)c1 | 15
O=C(N[C@H]1CC[C@@H]2CCC[C@@H]21)c1c[nH]c(=O)c(Cl)c1 | 25
Clc1ccc(Cn2cc(CNCCCn3ccnc3)c3ccccc32)c(Cl)c1 | 100
O=C(c1ccccc1)C1C(c2ccccc2)N1C(=O)c1ccc(Cl)cc1Cl (configuration not stated) | 6
Cc1ccc(-c2ccnc3c(C(=O)N4CCOCC4)cnn23)cc1C | 2
CC(C)c1cc(NS(=O)(=O)c2ccc3c(c2)OCCCO3)[nH]n1 | -17
O=C(c1ccco1)N1CC(n2cnnc2[C@@H]2CCCO2)C1 | -1
CCOc1cccc(Cn2c(=O)c3sccc3n(CC(=O)Nc3ccccc3)c2=O)c1 | 14
NC(=O)CN1CCCN(C(=O)c2cnc3ccccc3n2)CC1 | 10
O=C(c1ccoc1-c1ccccc1O)N1CCOCC1 | -10
Clc1ccc(OCc2ccc(-c3nc4c5cn[nH]c5ncn4n3)cc2)c(Cl)c1 | -10
O=C(C[C@H]1CCN(C(=O)Nc2ccccc2)C1)NC1CC1 | -4
CC(NC(=O)N1CCCCC1)(C(F)(F)F)C(F)(F)F | 14
CN(CC(=O)N(C)C1CCC(c2ccccc2)CC1)c1cnccn1 (configuration not stated) | -5
COc1ccc(CCNC(=O)c2cc3c(=O)[nH]c(C)cn3n2)cc1OC | 8
CC(=O)N(Cc1ccccc1)c1ccc2c(c1)nc(Cn1nc(C)cc1C)n2C | 5
COc1ccc(C)cc1NC(=O)N1CC[C@@]2(C1)Nc1cccnc1N=C2NC1CCCC1 | -2
Cc1cc(C)nc([C@@H](C#N)C(=O)c2ccnc(OCC(F)F)c2)n1 | -19
CC1(C(=O)N[C@H]2CCO[C@H](c3ccccn3)C2)CC1F (some centres not stated) | 4
O=S(=O)(Cc1ccccc1)N1CCC2(CCCCC2)C1 | 6
CCCc1nc(N2CCCN(C(=O)C3CCCCC3)CC2)c2c(C)nn(-c3ccccc3)c2n1 | 10

Compound | % Inhibition [%]
Cc1ccc(N2C(=O)NC3c4ccccc4OC2(C)C3C(=O)Nc2ccc(Cl)cc2)cc1Cl (configuration not stated) | -8
COCCS(=O)(=O)Nc1ccc(Br)c(C)n1 | -19
CCOc1ccccc1NC(=O)Cc1c(C)nc2nc(-c3cccnc3)nn2c1C | 3
CC(C)N(C)c1ccc(NC(=O)C2=NN(C)C(=O)CC2)cc1F | 4
O=C(NCc1ccoc1)NCC1(c2ccccc2)CC1 | -14
O=C(Nc1ccc(N2CCCC2)c(F)c1)C(=O)Nc1ccon1 | -13
CNC(=O)c1ccc(N(C)Cc2ccc(O)cc2)nn1 | 9
Cc1cccc2ncnc(N(C)[C@@H](C)Cc3ccc(O)cc3)c12 | 84
Cc1ccc(C(=O)N2CC(C)CC(C)C2)cc1NCc1ncc[nH]1 (configuration not stated) | 8
CC(C)Cc1nsc(N2CCOC3CCN(C)CC32)n1 (configuration not stated) | 11
CN(C)c1ccc(NC(=O)C2(N(Cc3ccccc3)C(=O)Cn3nnc4ccccc43)CCCCC2)cc1 | -8
Fc1ccc(-c2cc3c(N4CCCCCC4)nccn3n2)cc1 | 10
O=C(CCCC(=O)C1CC1)NC[C@H]1CCCOC1 | -12
Cc1cc2nc(C)c(=O)n(Cc3ccc(C(=O)NCCN4CCCC[C@@H]4C)cc3)c2cc1C | 35
CN(C)CCCNCc1ccc(Cl)cc1Cl | -7
CCn1ncc(-c2cc(C(F)(F)F)c3c(C(C)C)nn(-c4ccc(F)cc4)c3n2)c1C | -1
Cn1c(-c2ccc(Cl)c(Cl)c2)c[n+](CC(=O)c2ccc(-c3ccccc3)cc2)c1N | 9
COc1ncnc(OC)c1C(=O)N1CCC[C@H]1C=Cc1ccccc1 | -8
CC(=O)c1cccc(NC(=O)c2nonc2C)c1 | -11
CCCn1nc(-n2cnnc2)c(NS(=O)(=O)c2ccc(OC)c(OC)c2)c1C | 13
C[C@H]1CCc2c(cnc3c(C(=O)NC4CC4)cnn23)C1 | 2
CC(C)C1(CNC(=O)C(=O)c2cc(S(N)(=O)=O)cn2C)CC1 | 11
CCc1ccccc1NC(=O)Cn1cnc2nc(N(C)Cc3ccccc3)sc2c1=O | -15
Cc1ccc(N2CCCN(Cc3ccc(C(C)C)cc3)C2=O)c(NC(=O)c2ccco2)c1 | 11
CCc1nc2cc(-c3noc(Cc4ccc(Cl)cc4)n3)ccc2o1 | 2
Cc1noc2ncc(C(=O)N3C[C@H](C)OC(C)(C)C3)cc12 | 11

Compound | % Inhibition [%]
CCCNC(=O)CNC(=NC1CC1)NCc1ccccc1C | 1
O=C1C2C3CCCCN3C3(C(=O)N(Cc4ccc(F)cc4)c4ccccc43)C2C(=O)N1c1ccccc1 (configuration not stated) | 6
C[C@H]1CCc2c(cnc3c(C(=O)NCc4ccccc4)cnn23)C1 | 0
c1ccc(-n2ncnc2[C@@H]2COCCN2)cc1 | 11
CCCn1nccc1C(=O)NCCCn1ncc2c(C)cccc21 | 0
O=C(Cn1nnc2ccccc21)N(Cc1ccccc1)C1(C(=O)Nc2ccc3c(c2)OCO3)CCCCC1 | -13
O=C(NC[C@H]1CCCO1)N1CCN(c2nccs2)C(=O)C1 | 9
CC[C@H](N)C(=O)N(CC1CC1C)C(C)C (some centres not stated) | 9
O=C(CN1C(=O)C[C@H](Cc2ccc(F)cc2)C1=O)N1CCNC1=O | 9
CC(C)NC(=O)CN1CCC2(CC1)NC(c1ccc(OC(F)(F)F)cc1)=NO2 | 4
O=C(Nc1ccc2c(c1)OCO2)[C@@H](c1cccc(F)c1)N(Cc1ccc(F)cc1)C(=O)Cn1nnc2ccccc21 | 1
CCOc1ncccc1CNC(=O)CNC(C)=O | 13
O=C1Nc2ccc(Br)cc2C1=O | 13
CC(C)n1[nH]c(=O)c2c1NC(=O)C[C@@H]2c1cccc2nccnc12 | 11
COc1ccc(C2(NCc3cc(O)cc(Cl)c3)CCOCC2)cc1 | 1
CCN(CC)c1ccc(C(=O)OCC(=O)NC(C)(C)C)cc1 | -6
COc1ccc2nc(C)c(C(=O)N3CC(OCC(F)F)C3)n2n1 | -7
Oc1c(Br)cc(Br)cc1/C=C/c1ccc(CN2CCOCC2)cc1 | -4
N#CCC(=O)NC1CCC(CC2CCC(NC(=O)CC#N)CC2)CC1 (configuration not stated) | -2
COc1cccc(N2C(=O)C[C@]3(CC3(c3ccccc3)c3ccccc3)C2=O)c1 | 1
Clc1cccc(CNc2cc(-c3ccco3)n[nH]2)c1 | -3
O=C(c1cn[nH]c1-c1ccccc1)N1CCCCC1 | -7
Oc1cccc(CN[C@H]2CCCc3occc32)c1Cl | 83
COc1cc(OC)c(NC(=O)c2cnn3c4c(cnc23)CCCCCC4)cc1Cl | 12
CCc1ccc(NC(=O)[C@H]2CCCN(c3nc4cccnc4n(Cc4ccccc4)c3=O)C2)cc1 | -14
COc1cc(OC)cc(C(=O)Nc2cnc(N3CCCCC3)c(C)c2)c1 | 7

Compound | % Inhibition [%]
Cc1c(C)n(C[C@@H](O)CNC2CCCC2)c2c(Cl)cccc12 | -18
CCC(C)C(NC(=O)c1ccccc1NC(=O)c1ccco1)C(=O)N1CCCCCC1 (configuration not stated) | -6
COc1ccc(N[C@@H](C)C(=O)NC(=O)NC2CC2)c(OC)c1 | 4
O=C(NCc1ccc(S(=O)(=O)N2CCCC2)cc1)c1cc[nH]n1 | 0
COc1cccc(-c2cc3c(N4CCC5(CC4)OCCO5)nccn3n2)c1 | 3
CCCCN(C(=O)c1ccccc1)C(=O)c1ccccc1 | 2
Cc1ccc(COc2cccc(CNC3CC3)c2)cc1 | -1
O=C(O)C1CC1C(=O)N1CCN(c2ccc(Cl)c(Cl)c2)CC1 (configuration not stated) | 5
CCOC1CC2(CCN(Cc3cc(Cl)c(OC)cc3Cl)C2)C1 (configuration not stated) | 13
CCCC1CCC(OC(=O)c2ccc(C(=O)OC3CCC(CCC)CC3)nc2)CC1 (configuration not stated) | 8
C[C@H]1CCCCN1CCNC(=O)c1cc2c(s1)N(C)CCCC2 | -15
CC1(CN2CCOCC2)CCN(CC(=O)N2CCc3sccc3C2)CC1 | 9
OC[C@H]1CCc2nnc(C(F)F)n2C1 | 11
Cc1cc(C)c(S(=O)(=O)N2CCC(C)(C(=O)NCc3ccc4c(c3)OCO4)CC2)cc1C | 9
Cc1cc(C)cc(-c2cc3nc(C)cc(N4CCC(C(=O)NCc5cccc(F)c5)CC4)n3n2)c1 | 67
O=c1[nH]c2nc(N3CCN(c4ncccn4)CC3)ncc2c(=O)n1Cc1ccco1 | -12
Cc1cc(C#N)cc(C)c1Oc1nc(Nc2ccc(C#N)cc2Br)nc(N)c1Br | -4
COc1ccc([C@@]2(C)NC(=O)N(CC(=O)N3CC(=O)Nc4ccccc43)C2=O)cc1OC | 13
CCCOc1ccc(Nc2cc(C)nc3ccc(Cl)cc23)cc1 | 63
CN1CN(C(=O)c2cc(C#N)cn2C)CC1=O | -7
CC[C@H](C)NC(=O)c1cn(-c2cccc(C)n2)cn1 | 13
CC(C)(C)C(=O)NCCNC(=O)c1ccccn1 | 13
Cc1c(N2CCC(C(=O)NCCN3CCOCC3)CC2)c(=O)n(CC(C)C)c(=O)n1-c1ccccc1 | 6
COC(=O)[C@@H](NC(=O)NC1CCCCC1)C(C)(C)C | 8
